Results reported in PMC6919601, “Identification of Plasmodium dipeptidyl aminopeptidase allosteric inhibitors by high throughput screening” (PLoS ONE, 2019).
In all, about 110,000 compounds went through this assay and about 230 (0.21%) showed an effect of 50% or more. This is one part of the list.

These molecules were tested against DPAP1 (Plasmodium falciparum, UniProt Q8IIJ9) (assay: primary screen, percent inhibition; read by cleavage of a fluorogenic dipeptide substrate; higher = more effect of the substance).
DPAP1, sequence (Q8IIJ9 whole entry, looked up): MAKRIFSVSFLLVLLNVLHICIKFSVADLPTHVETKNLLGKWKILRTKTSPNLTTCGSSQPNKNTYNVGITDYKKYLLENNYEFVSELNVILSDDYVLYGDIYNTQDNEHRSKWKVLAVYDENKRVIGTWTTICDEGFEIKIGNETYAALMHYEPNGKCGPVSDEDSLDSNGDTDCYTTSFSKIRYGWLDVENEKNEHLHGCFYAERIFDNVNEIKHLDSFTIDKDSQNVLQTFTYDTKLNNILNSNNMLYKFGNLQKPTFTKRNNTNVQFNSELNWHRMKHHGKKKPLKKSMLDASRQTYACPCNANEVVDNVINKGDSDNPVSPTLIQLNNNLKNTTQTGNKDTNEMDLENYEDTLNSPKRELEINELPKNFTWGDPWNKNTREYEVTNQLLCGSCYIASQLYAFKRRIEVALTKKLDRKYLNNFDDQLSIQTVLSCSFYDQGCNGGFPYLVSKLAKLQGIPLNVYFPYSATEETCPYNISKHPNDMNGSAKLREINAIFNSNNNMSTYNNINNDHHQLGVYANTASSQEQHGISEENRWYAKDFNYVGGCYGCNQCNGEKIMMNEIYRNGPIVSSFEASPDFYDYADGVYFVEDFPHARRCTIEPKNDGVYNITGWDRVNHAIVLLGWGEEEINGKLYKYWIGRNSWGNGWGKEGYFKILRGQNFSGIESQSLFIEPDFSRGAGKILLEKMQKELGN
Design: species or system P. falciparum D10 trophozoite lysates; single well
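Also: 30 min substrate incubation versus DMSO and 10 µM JCP410 controls.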

SMILES | % Inhibition @ 10 uM [%]
c1ccc(CNc2ncnc3ncn(Cc4ccccc4)c23)cc1 | -0.216
O=C(O)C1C2CCC(O2)C1C(=O)NC1CCCCC1 (centres unmarked) | 0.205
CCOc1ccc(Nc2oc(-c3cccs3)nc2C#N)cc1 | -7.96
COc1cccc2c1nc(C)c1cc(C)oc12 | 0.51
O=C(Nc1ccc(Nc2ccccc2)cc1)c1ccc(F)cc1 | -3.71
COc1ccc(OC)c(NC(=O)CCC2CCCC2)c1 | -0.28
CC(C)N(Cc1nc(-c2ccc(Cl)cc2)no1)C(=O)c1ccc2c(c1)OCO2 | -2.45
CCCS(=O)(=O)N1CCN(Cc2noc(CCC(=O)N3CCCC3)n2)CC1 | 0.713
COc1ccc(S(=O)(=O)N(CC(=O)N2CCN(c3ccc(F)cc3)CC2)Cc2ccccc2)cc1 | 5.03
O=C1NC(=O)C(=Cc2cccc(Br)c2)C(=O)N1 | -5.11
COc1cc(CNC(C)(C)CO)ccc1OCc1ccccc1Cl | 7.35
O=C(CN(c1ccccc1F)S(=O)(=O)c1ccccc1)NC1CCCCC1 | -3.25
O=C(/C=C/c1cccc([N+](=O)[O-])c1)Nc1cccc(O)c1 | 6.49
COc1cc(/C=c2\sc3nc(-c4ccc(Cl)cc4)nn3c2=O)cc(OC)c1OC | 3.54
O=C(CCCC(=O)Nc1ccc(Cl)cc1)Nc1ccc(Cl)cc1 | -2.56
Cc1cc(Br)c(-n2nc(C)c3c(C)cc(=O)oc32)cc1C | -5
CC1CC(C)CN(CCCNC(=O)c2cc3c(s2)-c2ccccc2OC3)C1 (centres unmarked) | -3.08
CCOC(=O)/C(C#N)=C/c1ccc(OC)c(Br)c1 | 2.13
Cc1cc(C)c(C#N)c(SCC(=O)Nc2ccccc2C(N)=O)n1 | -2.24
CCOc1ccc2nc(N3CCC(C(=O)NC4CCCc5ccccc54)CC3)sc2c1 (centres unmarked) | -0.0745
Cc1nnc(N2CCCC(C(=O)NCCc3cccs3)C2)c2nn(-c3ccc(Cl)cc3)c(C)c12 (centres unmarked) | 6
COc1ccc(Cl)cc1NC1=C(Cl)C(=O)N(c2ccccc2)C1=O | -1.07

SMILES | % Inhibition @ 10 uM [%]
Cc1ccc(C(=O)NCCCN2CCOCC2)o1 | -1.89
Nc1cc2c(cc1S(=O)(=O)O)C(=O)c1ccccc1C2=O | 0.962
CCN(CC)CCCn1c(N)c(-c2nc3ccccc3[nH]2)c2nc(C#N)c(C#N)nc21 | -3.63
COc1ccc(/C=C2\N=C(c3cc(F)c(F)cc3Cl)OC2=O)c(OC)c1 | -4.13
O=C(NCCN1CCCCCC1)c1cc(-c2ccc(Cl)cc2)n[nH]1 | 1.41
CC1CCCCC1NC(=O)CCCn1c(=O)[nH]c2ccsc2c1=O (centres unmarked) | -0.972
CC(C)Cc1nnc2sc(NC(=O)c3ccco3)nn12 | -3.51
Cc1noc(C)c1CCC(=O)N1CCC(c2c[nH]c3ccccc23)(c2c[nH]c3ccccc23)CC1 | 5.54
CN1CCN(CCCn2cnc3c4cc(Cl)ccc4nc-3c2O)CC1 | -3.52
Cc1ccccc1C(=O)Nc1sc2c(c1C(=O)NC1CCS(=O)(=O)C1)CCCC2 (centres unmarked) | -2.79
O=C(CN1C(=O)c2ccccc2S1(=O)=O)Nc1cccc2ccccc12 | 1.88
CCCCNS(=O)(=O)c1ccc2nc(-c3cccnc3)cc(C(=O)NCc3ccccc3)c2c1 | 3.47
O=C(COc1cccc2cccnc12)N1CCN(C(=O)COc2cccc3cccnc23)CC1 | 1.63
CC1(c2ccc(Cl)cc2)CC(=O)c2cc(O)ccc2O1 (centres unmarked) | 4.79
O=C(O)CCCc1nc2ccccc2[nH]1 | -1.81
COc1cc2c(cc1OC)C(SC)=NC(C)(C)C2 | -0.582
CC(Sc1nc2c(c(=O)n(C)c(=O)n2C)n1Cc1cccc(Cl)c1)C(=O)O (centres unmarked) | -7.18
C=CCN1C(=O)/C(=C\c2ccccc2O)S/C1=N/c1ccccc1 | 22.4
COc1ccc(CNC(=O)c2cccs2)cc1OC | -1.46
COc1cc(C)ccc1CO/N=C(\N)c1nonc1N | -4.91
Cc1cccc(C(=O)n2nc(-c3ccco3)nc2NCc2cccs2)c1 | -3.24
C=CCSc1nc(-c2cccc(OC)c2)ccc1C#N | 2.68

SMILES | % Inhibition @ 10 uM [%]
CCOC(=O)N1CC=C2C(C#N)=C(N)C(C#N)(C#N)C(c3ccc(-c4ccccc4)cc3)C2C1 (centres unmarked) | 6.42
NC(=O)/C=C/C(=O)Nc1ccccc1Cl | 0.317
O=S1(=O)C(/C=N/CCc2ccccc2)=C(O)c2sccc2N1Cc1cccc(F)c1 | -4.61
COc1ccccc1-c1cc(C(F)(F)F)nc(S(=O)(=O)CCCC(=O)NC(C)C)n1 | 12.3
COc1cc(/C=C2/NC(=O)NC2=O)ccc1OCc1cccc(C(=O)O)c1 | 4.74
O=C(NCc1ccncc1)c1nc(-c2ccc3c(c2)OCO3)no1 | -6.25
Nc1nnc2nccnn12 | -1.11
CC1=C(C)CC(C(=O)Nc2nc(-c3ccc(F)cc3)c(C)s2)C(C(=O)O)C1 (centres unmarked) | 1.71
COc1ccc(-n2nnc3c(=O)n(Cc4cc(C)ccc4C)cnc32)cc1 | -3.94
COc1ccc(-n2c(C)nc(N)c2C(=O)c2ccccc2)cc1 | 2.7
Cn1c(=O)c(SC(C)(C)C)c(O)c2ccccc21 | 1.67
COc1ccc(F)c(C2C(C#N)=C(N)Oc3c2c(C)nn3-c2ccccc2)c1 (centres unmarked) | -2.87
O=C(Nc1ccccc1[N+](=O)[O-])c1c(F)cccc1F | -4.31
COc1ccc(C(=O)N2CCc3cc(OC)c(OC)cc3C2Cc2ccc(OC)c(OC)c2)cc1 (centres unmarked) | 4.58
FC(F)(F)c1nc2c(ccc3nsnc32)[nH]1 | -8.12
O=C1Nc2cc(Cl)cnc2N2CCCC12 (centres unmarked) | 13.2
COc1ccc(CNCC2CCC(C(=O)O)CC2)cc1 (centres unmarked) | 1.42
CCc1cc(S(=O)(=O)CC)c(S(=O)(=O)CC)s1 | 1.8
COc1ccc(/C=C/c2cc(C(=O)O)c3ccccc3n2)cc1 | 0.147
O=C(c1nc2ccccc2s1)c1conc1C(=O)c1cccs1 | 4.03
O=c1c2c3n(c4cc(N5CCCCC5)c([N+](=O)[O-])cc4c-2nn1-c1ccccc1)CCC3 | 0.815
